Assay results published in PubChem BioAssay AID248 (DTP/NCI, 2004).
Inconclusive results and toxic doses are left out. A number of entries come with more than one value. They are shown here; other results are not. The source may hold further records. Values that stand side by side repeat one measurement across runs, samples, wells, individuals or studies.

Tested on: L1210 leukemia ip in BDF1 mice, survival T/C
Test: NCI In Vivo Anticancer Drug Screen. Data for tumor model L1210 Leukemia (intraperitoneal) in B6D2F1 (BDF1) mice
Conditions: endpoint: mean survival time, higher = longer survival

For `CN(CCO)C1=C(N2CC2)C(=O)C(N(C)CCO)=C(N2CC2)C1=O`, the T/C (dose: 0.37 mg/kg/injection, schedule: Q04DX003 (ip), vehicle: saline) was 114 % of control and 157 % of control.
In the case of `O=NN(CCCl)C(=O)Nc1ccccc1`, the T/C (dose: 12.0 mg/kg/injection, schedule: Q01DX Z (ip), vehicle: carboxymethylcellulose (CMC)) is reported as 107 % of control, 182 % of control, 197 % of control.
For `CC1CN1P(=O)(N1CCCCC1)N1CC1C` (configuration not stated), the T/C (dose: 38.0 mg/kg/injection, schedule: Q01DX Z (ip), vehicle: saline) was 106 % of control and 150 % of control.
For `[Cl][Pt+2][Cl].[NH-]c1ccc(Cl)cc1[NH-]`, the T/C (dose: 200.0 mg/kg/injection, schedule: Q04DX003 (ip), vehicle: saline) was 118 % of control and 180 % of control and the T/C (dose: 400.0 mg/kg/injection, schedule: Q04DX003 (ip), vehicle: saline) was 100 % of control and 152 % of control.
For `O=Cc1c2ccccc2cc2ccccc12`, the T/C (dose: 9.7 mg/kg/injection, schedule: Q01DX015 (ip), vehicle: saline) was 97 % of control and 157 % of control, the T/C (dose: 16.2 mg/kg/injection, schedule: Q01DX015 (ip), vehicle: saline) was 93 % of control, 98 % of control, 158 % of control and the T/C (dose: 27.0 mg/kg/injection, schedule: Q01DX015 (ip), vehicle: saline) was 96 % of control, 107 % of control, 151 % of control.
In the case of `CCOc1cccc(NNc2ccccc2OCC)c1`, the T/C (dose: 100.0 mg/kg/injection, schedule: Q01DX001 (ip), vehicle: other) is reported as 92 % of control and 155 % of control.
With `CC(=O)OCC1OC(n2ccc(NC(=S)Nc3ccn(C4OC(COC(C)=O)C(OC(C)=O)C4OC(C)=O)c(=O)n3)nc2=O)C(OC(C)=O)C1OC(C)=O` (configuration not stated) the T/C (dose: 200.0 mg/kg/injection, schedule: Q01DX009 (ip), vehicle: saline) was 98 % of control and 179 % of control and the T/C (dose: 400.0 mg/kg/injection, schedule: Q01DX009 (ip), vehicle: saline) was 98 % of control and 173 % of control.
With `CCCC(=O)OCC1OC(n2cnc3c(=S)nc(N)[nH]c32)C(OC(=O)CCC)C1OC(=O)CCC` (configuration not stated) the T/C (dose: 8.0 mg/kg/injection, schedule: Q01DX Z (ip), vehicle: carboxymethylcellulose (CMC)) was 118 % of control and 157 % of control.
